# Reference: the supplement of paper PMC4166925
# ± gives the standard deviation of the averaged measurements. In all, about 33,000 sequences were measured (“E-score (dimensionless, -0.5 to 0.5)”: median about -0.049, highest 2% from about 0.37 on). Some of the results follow.
# System: T1, PmTbr T-box DNA-binding domain (GST fusion)
# T1 sequence: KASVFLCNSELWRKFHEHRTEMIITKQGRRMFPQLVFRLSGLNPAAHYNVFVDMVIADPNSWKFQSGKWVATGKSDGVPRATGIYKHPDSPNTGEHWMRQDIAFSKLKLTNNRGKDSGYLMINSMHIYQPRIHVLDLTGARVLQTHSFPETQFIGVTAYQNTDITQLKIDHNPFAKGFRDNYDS
# Test: PBM E-score of 8-mer (E-score (dimensionless, -0.5 to 0.5)); Tbr is Tbrain of the sea star Patiria miniata (Pm) or the sea urchin Strongylocentrotus purpuratus (Sp); higher = stronger binding preference; most listed sequences are background and not binding sites
# Details: the construct has about 5 more residues each side
# Description: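 Universal protein-binding microarray (Agilent AMADID 016060, 60-bp probes with a 35-bp variable region) incubated with 200 nM GST-fused Patiria miniata Tbr T-box DNA-binding domain (residues 272-466) in PBS pH 7.5. Scored for every ungapped 8-mer (given with its reverse complement) by the Universal PBM Analysis Suite as E-score (modified Wilcoxon-Mann-Whitney enrichment, range -0.5 to 0.5; >0.45 counts as bound) and Z-score of median probe intensity. Two replicate arrays (datasets 1 and 2).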
# 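Also: 200 nM protein in PBS on universal arrays averaged over duplicate arrays.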
row,Sequence,PBM E-score of 8-mer
1,GTCTCTAA,-0.0362 ± 0.057
2,ACTACATA,-0.185 ± 0.019
3,CTGATGCC,-0.21 ± 0.043
4,CTTTCTCC,-0.0631 ± 0.16
5,CTAATCAC,0.133 ± 0.0072
6,AAGGACTG,-0.124 ± 0.051
7,GCCCTAAC,-0.0192 ± 0.029
8,GTTCCCGA,-0.175 ± 0.079
9,CTCATGGC,-0.0877 ± 0.057
10,TAGCTATA,-0.175 ± 0.012
11,ACGTGCGA,0.4433 ± 0.0027
12,CTCACCAA,0.211 ± 0.042
13,ATGGAATC,-0.113 ± 0.077
14,CAGCACCC,0.257 ± 0.063
15,GCTGGCAC,0.234 ± 0.064
16,ATCAAGAG,-0.279 ± 0.034
17,ATTTGTCC,-0.02 ± 0.047
18,ATTGGACC,-0.11 ± 0.012
19,ATGAATGG,-0.0554 ± 0.0063
20,AGGCTCAA,-0.107 ± 0.019
21,CGCAATTC,0.096 ± 0.018
22,ACGCGTAA,0.205 ± 0.0049
23,CAAAGCGC,-0.0479 ± 0.039
24,ACCCGGAT,-0.000825 ± 0.1
25,ACACGGCG,0.16 ± 0.0048

row,Sequence,PBM E-score of 8-mer
1,CGGACCAG,-0.355 ± 0.0047
2,ACCACAGG,0.132 ± 0.015
3,ATCCCGCC,-0.124 ± 0.045
4,ATCTCACG,0.294 ± 0.016
5,ATCCTTAG,-0.27 ± 0.0086
6,GGCTATAA,-0.0886 ± 0.0021
7,AGATAGAT,-0.217 ± 0.015
8,GCAACAGA,-0.044 ± 0.051
9,AACCTCAT,-0.0665 ± 0.025
10,GTATACGA,-0.16 ± 0.064
11,AATGAACA,-0.106 ± 0.0032
12,TTAAACAA,-0.0365 ± 0.021
13,CATCCGGG,-0.171 ± 0.045
14,CAAAAGGC,0.00442 ± 0.079
15,GGCACGCC,0.126 ± 0.028
16,CATTTTCC,-0.0972 ± 0.024
17,CATTGATC,-0.164 ± 0.03
18,ATGTATAC,-0.0917 ± 0.039
19,CGGGCCTA,-0.22 ± 0.029
20,GACGAGCC,-0.0675 ± 0.1
21,GAACTTTA,0.0303 ± 0.057
22,CGGCCACA,0.0565 ± 0.0067
23,ACGACCCA,-0.0037 ± 0.018
24,GCATGCTA,0.107 ± 0.033
25,ACATCTCT,-0.00486 ± 0.058

row,Sequence,PBM E-score of 8-mer
1,CTAGCTTC,-0.093 ± 0.058
2,AACATTTG,0.0235 ± 0.04
3,GGCAAAAA,0.0558 ± 0.047
4,AAAACGCG,0.189 ± 0.037
5,AGTCGTCA,0.223 ± 0.042
6,ACCACCTC,0.341 ± 0.027
7,TGGCCAAA,-0.121 ± 0.043
8,GGAGGGTA,0.0367 ± 0.054
9,CCCTACAA,-0.041 ± 0.031
10,CGCCAGTA,0.123 ± 0.02
11,GATTCGCC,0.000945 ± 0.017
12,CAGTTTCC,-0.0713 ± 0.018
13,GATCGTAC,-0.14552 ± 5.7e-05
14,AAGGTCCG,-0.208 ± 0.068
15,ACCGGAGC,-0.214 ± 0.025
16,CGGCATCC,-0.109 ± 0.04
17,AAGCAGGT,0.1547 ± 0.00098
18,CAACCTCG,0.0578 ± 0.0012
19,CGAATACG,0.0138 ± 0.0012
20,CTGTAAAC,0.0517 ± 0.06
21,TAGAGGGA,-0.0723 ± 0.04
22,CGTATACC,-0.0524 ± 0.038
23,ACGCCACA,0.148 ± 0.057
24,CTTCCCTC,-0.22484 ± 0.00012
25,ACCTCCCT,0.055 ± 0.044

row,Sequence,PBM E-score of 8-mer
1,AGTAAGTC,-0.207 ± 0.033
2,CCAATCTA,-0.137 ± 0.017
3,AATCCCGC,-0.199 ± 0.0081
4,GCCTGACA,0.23 ± 0.03
5,CTATCTAC,-0.0836 ± 0.027
6,TCTGTGCA,-0.13 ± 0.065
7,TACCAACA,0.135 ± 0.0073
8,TGGAGAAA,0.00726 ± 0.093
9,GGTCAACC,-0.126 ± 0.004
10,CCTCAGCC,-0.06 ± 0.04
11,AGCTTTAA,-0.256 ± 0.049
12,GAATCGTA,-0.115 ± 0.011
13,GAGAGCAA,-0.0151 ± 0.0081
14,AGATTACA,-0.1 ± 0.028
15,GCTAAACC,0.109 ± 0.0076
16,ACTAAGAC,0.04 ± 0.012
17,GTTCGCGA,0.338 ± 0.019
18,CTGTCCCA,0.0449 ± 0.02
19,CTCGTCAA,0.141 ± 0.04
20,GAGCCGCC,-0.114 ± 0.044
21,AGTTATAC,-0.0366 ± 0.0057
22,ACCGAGAC,-0.175 ± 0.07
23,GCATGTCA,-0.0206 ± 0.061
24,GCTTCAAC,-0.193 ± 0.061
25,CGTCGAAA,0.0712 ± 0.034

row,Sequence,PBM E-score of 8-mer
1,GGCCGAAC,-0.292 ± 0.0094
2,CCCTCCGG,0.0366 ± 0.049
3,CCAAAGAG,0.0215 ± 0.0046
4,TCGTATAA,-0.192 ± 0.035
5,AAATAACC,0.0174 ± 0.057
6,AATTTTGG,-0.0211 ± 0.053
7,GAGGTGAA,0.294 ± 0.0035
8,CAACCGTG,0.216 ± 0.013
9,CCCACATC,0.142 ± 0.065
10,ACGAGTAC,-0.1 ± 0.054
11,ATACGCCA,0.0158 ± 0.048
12,CACGCCCA,0.239 ± 0.007
13,AAGGAATA,-0.167 ± 0.018
14,CGGCGGGA,0.00891 ± 0.1
15,AGAGGAGG,0.184 ± 0.048
16,CTATCGAG,0.139 ± 0.066
17,CCGTACTC,-0.204 ± 0.04
18,GGTCACCA,-0.127 ± 0.052
19,GCCGCCTA,-0.176 ± 0.021
20,AAGCTAAT,-0.209 ± 0.053
21,CGTGGGGC,-0.0412 ± 0.069
22,AGTTATCG,0.0442 ± 0.042
23,CTGTGTAC,-0.216 ± 0.043
24,ACCAACAT,-0.0497 ± 0.017
25,CCAGCGAA,0.141 ± 0.012

row,Sequence,PBM E-score of 8-mer
1,CAGATCCA,-0.0377 ± 0.038
2,CAGGTGAA,0.1748 ± 0.0016
3,CCAAAACC,0.0649 ± 0.035
4,GTCAACAA,0.293 ± 0.013
5,AGCCAGCC,-0.22 ± 0.12
6,ACTGTCTG,0.0484 ± 0.067
7,AAATAGTA,-0.103 ± 0.029
8,AGTGTGCC,0.125 ± 0.0018
9,CGGGGGTA,-0.311 ± 0.064
10,CCCGAAAA,-0.308 ± 0.032
11,AGGCTAAT,-0.301 ± 0.0091
12,CACGCTTA,0.163 ± 0.0077
13,AATGCTGT,-0.0806 ± 0.046
14,GCCTGCCA,0.177 ± 0.0076
15,CATGTACC,-0.136 ± 0.0026
16,ACTGTAAA,0.0546 ± 0.023
17,AAACCAAA,-0.223 ± 0.015
18,CATAAGAC,-0.1577 ± 0.00067
19,ATGGGTAG,0.0295 ± 0.059
20,TGACCGAA,0.156 ± 0.024
21,ACCCGGAG,0.222 ± 0.074
22,GAGGATTA,-0.00387 ± 0.068
23,GCCGACAC,0.382 ± 0.03
24,GAACTTGC,0.0599 ± 0.089
25,CTTCGATA,-0.00351 ± 0.034

row,Sequence,PBM E-score of 8-mer
1,GGCAGTAA,-0.113 ± 0.0066
2,GCAGCACA,-0.0627 ± 0.01
3,ATCGACTC,-0.162 ± 0.051
4,AGTCATCA,0.0394 ± 0.017
5,AGCCCAAC,-0.194 ± 0.0054
6,CGTCGCAG,-0.0808 ± 0.038
7,ACGTAACC,-0.1962 ± 0.00011
8,GGATGGTA,-0.326 ± 0.036
9,GGACATTA,-0.325 ± 0.06
10,CAATGATG,-0.0571 ± 0.053
11,CCCGGTGA,-0.158 ± 0.089
12,ACTGACCG,-0.137 ± 0.05
13,CATCTTGA,-0.00594 ± 0.0059
14,GGAGATAC,-0.218 ± 0.053
15,CGTGACAA,0.407 ± 0.025
16,CTTCCCGA,-0.104 ± 0.0081
17,ATCTTGAG,-0.101 ± 0.058
18,CAGGGCGA,0.077 ± 0.062
19,GGGACGAA,-0.15 ± 0.018
20,AACGCATT,0.0844 ± 0.015
21,CCCCTCCC,-0.129 ± 0.035
22,AATCAAGA,-0.13 ± 0.1
